Measured values reported in US20200196599A1 (priority 2018, published 2020).

Target: T1, AtEXO70A1 (Arabidopsis thaliana, UniProt Q9LZD3)
T1 sequence (Q9LZD3 1-638): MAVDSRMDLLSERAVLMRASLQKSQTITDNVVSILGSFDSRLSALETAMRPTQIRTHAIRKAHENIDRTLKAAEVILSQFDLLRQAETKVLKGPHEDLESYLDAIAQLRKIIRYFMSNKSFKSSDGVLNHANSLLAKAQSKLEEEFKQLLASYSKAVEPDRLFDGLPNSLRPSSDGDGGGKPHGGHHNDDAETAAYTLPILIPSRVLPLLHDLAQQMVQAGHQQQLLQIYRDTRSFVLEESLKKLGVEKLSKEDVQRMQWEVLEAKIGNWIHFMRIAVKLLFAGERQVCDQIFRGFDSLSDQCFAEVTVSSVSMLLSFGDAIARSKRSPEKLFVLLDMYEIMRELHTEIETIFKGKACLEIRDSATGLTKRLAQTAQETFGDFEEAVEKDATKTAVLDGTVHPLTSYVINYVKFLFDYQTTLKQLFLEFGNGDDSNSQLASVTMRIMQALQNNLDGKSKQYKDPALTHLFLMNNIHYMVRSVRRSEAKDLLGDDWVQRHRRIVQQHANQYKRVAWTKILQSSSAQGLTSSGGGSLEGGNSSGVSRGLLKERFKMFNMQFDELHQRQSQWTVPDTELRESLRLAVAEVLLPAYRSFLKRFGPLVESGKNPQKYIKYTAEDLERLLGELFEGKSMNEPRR
Conditions: 400 μM compound, pronase 1:3000 dilution
Experimental: The full-length AtEXO70A1 protein fused with the SUMO-His tag was purified (FIG. 8, lane 2) and tested for its interaction with analog 14 and AtEXO70A1 using the drug affinity responsive target stability (DARTS) assay that is based on the protection of receptor proteins by ligands from degradation by proteases (Lomenick et al., 2009).
To test the interaction between ES2 or analog 14 and EXO70 proteins, purified AtEXO70A1, MoEXO7O or BcEXO70 was used. 2.5 μg of purified protein was mixed with 2.5 μg of BSA in 200 μl reactions. The protein mixture was incubated with 2% DMSO, 400 μM ES2 or 400 μM analog 14 for 1 hour at room temperature with rotating. After incubation, each protein and chemical mixture was divided into 3 tubes. 1 μl pronase at 1:3000 or 1:10,000 dilutions from 10 mg/ml stock or 1 μl water was added to different aliquots. After 30 minutes of digestion, the reaction was terminated by adding SDS loading buffer and denaturing at 100° C. for 5 minutes. The samples were loaded to SDS-PAGE and the protein was detected using silver staining. The silver stained gel was scanned and the intensity of protein band was quantified using ImageJ.

SMILES	protection of AtEXO70A1 from degradation by pronase
COc1cc(/C=N/NC(=O)c2cccc(F)c2)cc(I)c1O [ES2, endosidin2, reference compound]	protected AtEXO70A1 from degradation
O=C(N/N=C/c1cc(I)c(O)c(I)c1)c1cccc(F)c1 [analog 14]	protected AtEXO70A1
